ChEMBL document CHEMBL4888484, “Replenishing the malaria drug discovery pipeline: Screening and hit evaluation of the MMV Hit Generation Library 1 (HGL1) against asexual blood stage Plasmodium falciparum ,using a nano luciferase reporter read-out” (2022)
The whole screen tested about 150,000 compounds, of which about 540 (0.36%) showed an effect of 50% or more. The list shows a part of the results.

These molecules were tested on Plasmodium falciparum (assay: Primary screen in NF54 nanoGlo assay, in single point, at 2uM, 72h; a lower Z score goes with more inhibition). Conditions: timepoint 72 hour.
Assay type: functional, Erythrocyte
`Cc1ccc(C)c([C@H](C)NC(=O)CN2CCN(c3cnn(C)c(=O)c3)CC2)c1` was tested, and the “% Inhibition” value was -9% and the Z score was 0.84. `Cc1ccc(-c2cc(C(=O)NC3CCCC(C)C3C)c3ccccc3n2)cc1C` (configuration not stated) was tested, and the “% Inhibition” value was -2% and the Z score was 0.29. For `N#CC1C(=O)Nn2c(N)nc(-c3ccccc3)c2C1c1ccccc1` (configuration not stated), the “% Inhibition” value was 28% and the Z score was -3.22. In the case of `CC(C)(CNC(=O)N1CCC(C(F)(F)F)C(CN)C1)C1=CCCCC1` (configuration not stated), the “% Inhibition” value is reported as 7% and the Z score is reported as -0.75. For `CCCn1nccc1C(=O)N[C@H]1CC2(CCCCC2)Oc2ccccc21`, the “% Inhibition” value was -8% and the Z score was 1.25. `Cc1ccc(S(=O)(=O)NCc2ccco2)cc1C(=O)Nc1ccccn1` was tested, and the “% Inhibition” value was 1% and the Z score was -0.16. In the case of `Cn1ccnc1-c1ccccc1C(=O)NCc1nc(-c2cnccn2)n[nH]1`, the “% Inhibition” value is reported as -3% and the Z score is reported as 0.46. `CN1CCN(C(=O)c2ccccc2N2CCC(NC(=O)c3ccc(Cl)cc3)CC2)CC1` was tested, and the “% Inhibition” value was -8% and the Z score was 1.48. With `CN1C[C@@]2(CCCN(C(=O)NCc3cncn3C3CC3)CC2)OC1=O` the “% Inhibition” value was -10% and the Z score was 1.92. `Cc1nc(N2CCC[C@H](C(=O)NC3CC3)C2)nc2cc(S(C)(=O)=O)ccc12` was tested, and the “% Inhibition” value was -3% and the Z score was 0.43. In the case of `CO[C@@H](Cn1cnnc1Nc1cccnc1)C1CCCC1`, the “% Inhibition” value is reported as -8% and the Z score is reported as 1.42. For `Cc1ccccc1NC(=O)N1CCC(n2cnc3c(Cl)cccc3c2=O)CC1`, the “% Inhibition” value was 10% and the Z score was -1.16. With `CCCNc1cc(N2CCC(CCC(=O)N(C)Cc3cn(C)nc3C)CC2)ncn1` the “% Inhibition” value was 27% and the Z score was -3.02. `Cc1cc(C)n(CC(=O)Nc2ccc3c(c2)OCO3)c(=O)c1-c1nc(-c2ccccc2)no1` was tested, and the “% Inhibition” value was -10% and the Z score was 1.41. `COc1cnc(C(=O)N[C@H]2CCCc3cnn(C(C)C)c32)nc1` was tested, and the “% Inhibition” value was -6% and the Z score was 0.92. For `CCS(=O)(=O)c1ccccc1CC(=O)N(C)c1ccc(C)nn1`, the “% Inhibition” value was -4% and the Z score was 0.81. With `CN(CC(=O)Nc1sc2c(c1C(N)=O)CCCC2)Cc1cccs1` the “% Inhibition” value was -11% and the Z score was 1.45. For `Fc1ccc([C@@]2(CNCc3ccc(C(F)(F)F)nc3)CCOC2)cc1`, the “% Inhibition” value was -21% and the Z score was 1.82. `Cc1nn(C2CCCC2)c2nc(-c3cc(CN(C)C)cs3)[nH]c12` was tested, and the “% Inhibition” value was 69% and the Z score was -9.28. In the case of `COc1ccc(C(=O)N2CC[C@H](N(C)C)[C@H](CCC(=O)O)C2)cc1Cl`, the “% Inhibition” value is reported as -2% and the Z score is reported as 0.44. `O=C(Cn1c(=O)n(C2CCCCC2)c(=O)c2cccnc21)Nc1cccc(C(F)(F)F)c1` was tested, and the “% Inhibition” value was -17% and the Z score was 2.25. In the case of `Cc1noc(CCCC(=O)N2CCOC[C@@H]2CC2CCC2)n1`, the “% Inhibition” value is reported as 0% and the Z score is reported as 0.06. For `O=C(C1CCCC1)N1CC[C@](O)(c2ccccc2)[C@H](N2CCCC2)C1`, the “% Inhibition” value was 2% and the Z score was -0.23. `Cc1csc(CN(C)S(=O)(=O)N2CCN(C)CC2)n1` was tested, and the “% Inhibition” value was -8% and the Z score was 1.25. In the case of `C[C@]1(c2noc(C3CCOCC3)n2)CCCN(C(=O)c2ccncc2)C1`, the “% Inhibition” value is reported as -5% and the Z score is reported as 0.75. `COc1cccc(NC(=O)c2ccc3c(c2)nnn3Cc2ccc(C)cc2)c1` was tested, and the “% Inhibition” value was -13% and the Z score was 1.28. For `O=C(CCC1CCN(Cc2cccc(Oc3ccccc3)c2)CC1)NC[C@H]1CCCO1`, the “% Inhibition” value was 1% and the Z score was -0.09. `Cc1ccc(NC(=O)c2cc(N3C(=O)C4CCCCC4C3=O)ccc2N2CCCCC2)cc1` (configuration not stated) was tested, and the “% Inhibition” value was -6% and the Z score was 0.75. For `Cc1nc2c(C#N)cnn2c2c1CCN2Cc1cccc(Cl)c1`, the “% Inhibition” value was -17% and the Z score was 2.54. With `c1ccc(-c2cc(-c3ccccc3)c3nonc3c2-c2ccccc2)cc1` the “% Inhibition” value was -2% and the Z score was 0.19. In the case of `Cc1csc([C@@H](NCc2ncc(C)o2)C2CC2)n1`, the “% Inhibition” value is reported as -4% and the Z score is reported as 0.51. In the case of `CCOC(=O)C1CCC(CN(Cc2ccc(OC)cc2)S(=O)(=O)c2cc(C(=O)Nc3ccc(OCC)cc3)ccc2F)CC1` (configuration not stated), the “% Inhibition” value is reported as 36% and the Z score is reported as -4.61. With `C[C@H]1CCCN(S(=O)(=O)NCCc2ccc3c(c2)OCO3)C1` the “% Inhibition” value was -3% and the Z score was 0.6. For `CC(=O)N(Cc1ccco1)Cc1cc(NC(=O)C2CCC2)ccc1N(C)C`, the “% Inhibition” value was 5% and the Z score was -0.68. For `O=C(COc1ccccc1)N1CCC2(CC1)C[C@@H](N1CCOCC1)CCO2`, the “% Inhibition” value was -14% and the Z score was 1.86. `CCc1ccccc1N1C(=O)c2cc(-c3ccco3)nn2C[C@@]1(C)C(=O)NCc1ccc(C)cc1` was tested, and the “% Inhibition” value was -5% and the Z score was 0.82. For `O=C(NC1CC1)c1ccc2ccccc2n1`, the “% Inhibition” value was -6% and the Z score was 0.52. In the case of `C[C@]1(CNC(=O)c2ccc3c(c2)CCCC3)CCCO1`, the “% Inhibition” value is reported as -3% and the Z score is reported as 0.62. With `O=C(c1cccc(F)c1)N1CCCc2cnc(N3CCOCC3)nc21` the “% Inhibition” value was -18% and the Z score was 2.02. For `COc1ccc(S(=O)(=O)N2C[C@@H](C(=O)Nc3cccc(OC)c3)Oc3cc(C)ccc32)cc1`, the “% Inhibition” value was -19% and the Z score was 2.75. In the case of `COC1CN(CCOc2cccc(C#N)c2)CC1OC` (configuration not stated), the “% Inhibition” value is reported as 14% and the Z score is reported as -1.76. With `Cc1ccc(CNC(=O)N2CCC[C@H](Cc3nncn3CC3CC3)C2)cc1` the “% Inhibition” value was -7% and the Z score was 0.88. For `O=C(NC[C@H]1CCCN(C(=O)C2CC=CC2)C1)c1ccncc1`, the “% Inhibition” value was 6% and the Z score was -1.03. `Cc1ccc2[nH]c(C3CN(C(=O)c4c(-c5ccccc5Cl)noc4C)C3)nc2c1` was tested, and the “% Inhibition” value was -13% and the Z score was 2.38. With `Cc1cc(NC(=O)Cc2cccc(F)c2)sn1` the “% Inhibition” value was -3% and the Z score was 0.49. With `O=C(Nc1nccs1)Nc1nccs1` the “% Inhibition” value was -7% and the Z score was 1.1. With `COc1ccccc1C(O)Cn1cc(C(=O)NC(C)c2cccnc2)nn1` (configuration not stated) the “% Inhibition” value was -8% and the Z score was 1.61. For `Cn1ccnc1CNc1ncc(Cc2cccc(F)c2)s1`, the “% Inhibition” value was -9% and the Z score was 0.88. With `CC(C)Oc1cccnc1C(=O)N1CC(=O)N(C)c2ccccc21` the “% Inhibition” value was 9% and the Z score was -1.27. In the case of `O=C(COc1ccc(CO)cc1)N1CC[C@@H]2CC[C@@]21c1cccnc1`, the “% Inhibition” value is reported as -8% and the Z score is reported as 0.95. With `O=S1(=O)CC[C@H](CNc2cnc3cc(Cl)c(Cl)cc3n2)C1` the “% Inhibition” value was -5% and the Z score was 0.47. In the case of `COc1cccc2c1OC[C@@H](C(=O)N1CCn3c(C)nnc3C1)C2`, the “% Inhibition” value is reported as -10% and the Z score is reported as 1.64. `COc1cccc(C[C@H](NC(=O)c2cn[nH]c2C)C2CC2)c1` was tested, and the “% Inhibition” value was 2% and the Z score was -0.27. With `O=C1[C@@H]2[C@H](Cc3ccccc3)N[C@]3(C(=O)Nc4ccccc43)[C@@H]2C(=O)N1c1ccc2c(c1)OCO2` the “% Inhibition” value was -8% and the Z score was 1.09. With `Cc1ccc(C2=NN(C(=O)CN3CCN(c4ccccc4F)CC3)[C@H](c3ccccc3C)C2)c(C)c1` the “% Inhibition” value was -19% and the Z score was 1.79. For `O=S1(=O)N(Cc2ccc(CO)cc2)c2ccccc2N1C1CC1`, the “% Inhibition” value was -1% and the Z score was 0.14. In the case of `COCc1cn([C@H]2CCN(S(=O)(=O)c3c(Cl)cccc3Cl)C2)nn1`, the “% Inhibition” value is reported as -10% and the Z score is reported as 1.83. In the case of `NC(=O)Cc1ccccc1OCc1coc(-c2c(F)cccc2F)n1`, the “% Inhibition” value is reported as -7% and the Z score is reported as 0.64. `CCCN(Cc1cc(NC(=O)C2CCC2)ccc1N(C)C)C(=O)CC` was tested, and the “% Inhibition” value was -2% and the Z score was 0.36. With `C[C@@H](Cn1cncn1)c1nc(COc2ccc(C(C)(C)C)cc2)n[nH]1` the “% Inhibition” value was -10% and the Z score was 1.23. In the case of `CN(C)c1ccc(C(=O)NCCn2nc(C3CC3)ccc2=O)nn1`, the “% Inhibition” value is reported as 14% and the Z score is reported as -1.83. In the case of `NC(=O)Cc1ccc(NC(=O)c2ccc3[nH]ncc3c2)cc1`, the “% Inhibition” value is reported as 0% and the Z score is reported as 0.02. In the case of `CC1(C)OC(=O)C[C@@H]1C(=O)Nc1nc2c(s1)CCC2`, the “% Inhibition” value is reported as 1% and the Z score is reported as -0.07. In the case of `Cc1cccc(-c2noc(CN3CCC(=O)Nc4cc(F)ccc43)n2)c1`, the “% Inhibition” value is reported as 1% and the Z score is reported as -0.25. For `CC1CCCC(NC(=O)C2N(CCN(C)Cc3ccccc3)C(=O)[C@H]3C(C(=O)Nc4ccc(F)c(Cl)c4)[C@H]4C=C[C@@]23O4)C1C` (some centres not stated), the “% Inhibition” value was -4% and the Z score was 0.56. With `Cc1ccc2sc(CN3CC(CC4COCC(=O)N4)c4ccccc43)nc2c1` (configuration not stated) the “% Inhibition” value was -7% and the Z score was 0.76. `Cn1nncc1S(=O)(=O)NC[C@@H](CO)CC1CCCC1` was tested, and the “% Inhibition” value was -11% and the Z score was 1.54. For `Cc1ccccc1[C@@H](C)CC(=O)NCCCn1ccccc1=O`, the “% Inhibition” value was -11% and the Z score was 1.43. `CC(C)(C)N1C[C@@H](CNC(=O)C(=O)c2cccnc2)CC1=O` was tested, and the “% Inhibition” value was -12% and the Z score was 2.32. With `Cc1nc(CCNC(=O)c2cn[nH]c2)nc2c1CCC2` the “% Inhibition” value was -4% and the Z score was 0.63. For `CC(C)OC(=O)c1cc(NC(=O)[C@@H]2CCCO2)ccc1Cl`, the “% Inhibition” value was -5% and the Z score was 0.71. In the case of `Cc1cc2[nH]c(=O)cc(C)c2c(C)c1S(=O)(=O)N1CCCCC1`, the “% Inhibition” value is reported as -7% and the Z score is reported as 0.84. `O=C1O[C@@H]2C[C@H]3C[C@@H]2[C@@H]1[C@H]3C(=O)Nc1ccc(C(=O)N2CCCCC2)cc1` was tested, and the “% Inhibition” value was 5% and the Z score was -0.53. For `CCOc1ccccc1C(=O)Nc1cnc2cc(C)nn2c1`, the “% Inhibition” value was -11% and the Z score was 1.44. With `Oc1nc(Cc2ccccc2)nc2c1nnn2Cc1ccccc1` the “% Inhibition” value was 25% and the Z score was -2.86. `CCC(NC1CCC(=O)N(C)C1)c1ccccc1F` (configuration not stated) was tested, and the “% Inhibition” value was 0% and the Z score was 0.03. For `Cc1nc(-n2cc(C(=O)[C@H](C)Oc3ccc(Cl)cc3)nn2)nc2c1CCCC2`, the “% Inhibition” value was 7% and the Z score was -0.99. In the case of `O=C(Nc1ccc2[nH]c(-c3cccs3)nc2c1)c1cccs1`, the “% Inhibition” value is reported as -12% and the Z score is reported as 1.51. In the case of `COc1ccc(-c2nc([C@H]3CC(=O)N(Cc4ccc(C)cc4)C3)[nH]c2C)cc1`, the “% Inhibition” value is reported as -8% and the Z score is reported as 1.07. In the case of `COCCC(C)(C)C(=O)N1CCC(c2nc(C(F)(F)F)c[nH]2)CC1`, the “% Inhibition” value is reported as -6% and the Z score is reported as 1.03. With `CCN(CC)c1ncc(NS(=O)(=O)c2cc(C)ccc2C)cc1C(=O)O` the “% Inhibition” value was -8% and the Z score was 0.77.
